Out of some 110,000 compounds screened, about 230 (0.21%) showed an effect of 50% or more. This is one part of the list.
Each molecule was assayed against DPAP1 (Plasmodium falciparum, UniProt Q8IIJ9) (assay: primary screen, percent inhibition; read by cleavage of a fluorogenic dipeptide substrate; higher = more effect of the substance).
Set-up: species or system P. falciparum D10 trophozoite lysates; single well
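Further: 30 min substrate incubation versus DMSO and 10 µM JCP410 controls.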

Chain of DPAP1 (Q8IIJ9 whole entry, looked up): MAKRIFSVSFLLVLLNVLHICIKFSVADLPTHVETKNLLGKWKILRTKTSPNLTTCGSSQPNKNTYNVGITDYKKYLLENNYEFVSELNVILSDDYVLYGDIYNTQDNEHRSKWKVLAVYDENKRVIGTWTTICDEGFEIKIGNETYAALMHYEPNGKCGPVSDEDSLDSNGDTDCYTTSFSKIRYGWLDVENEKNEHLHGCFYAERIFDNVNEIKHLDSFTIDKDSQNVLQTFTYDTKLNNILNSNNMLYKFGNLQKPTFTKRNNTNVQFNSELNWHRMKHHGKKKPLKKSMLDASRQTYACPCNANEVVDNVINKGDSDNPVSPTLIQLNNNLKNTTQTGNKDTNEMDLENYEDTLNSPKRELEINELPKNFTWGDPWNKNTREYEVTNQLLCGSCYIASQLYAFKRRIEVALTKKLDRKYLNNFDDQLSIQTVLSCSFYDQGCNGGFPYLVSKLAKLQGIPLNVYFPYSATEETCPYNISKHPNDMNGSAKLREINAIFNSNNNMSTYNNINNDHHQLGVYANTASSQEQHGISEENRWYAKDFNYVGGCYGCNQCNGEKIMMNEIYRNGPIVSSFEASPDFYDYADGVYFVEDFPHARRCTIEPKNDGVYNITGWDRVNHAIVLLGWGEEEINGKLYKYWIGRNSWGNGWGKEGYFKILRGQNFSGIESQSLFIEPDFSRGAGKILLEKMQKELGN

Row | Compound | % Inhibition @ 10 uM
1 | COc1ccc(-c2csc(/C(C#N)=C/c3ccccc3F)n2)cc1 | -3.44%
2 | Cc1nn(CC(=O)NC2CCN(Cc3ccccc3)CC2)c(=O)c2cc3cc(F)ccc3n12 | -1.7%
3 | O=C(NCC1CCCO1)NC1(C(F)(F)F)Oc2cc(Cl)c(Cl)cc2O1 (centres unmarked) | -1.2%
4 | Cc1cccc(C)c1OCCNCC(C)O (centres unmarked) | -2.8%
5 | COc1ccccc1OCC(=O)N1CCN(c2ccccc2)CC1 | 1.59%
6 | CC1(C)CC(NC(=O)c2ccccc2C(=O)O)CC(C)(C)N1 | -5.44%
7 | CC(=O)Nc1ccc2c(c1)ncn2-c1ccccc1 | 0.345%
8 | CCc1nn(CCCC(=O)NCCCN2CCCC2=O)c(=O)c2cc3occc3n12 | -3.79%
9 | COc1ccc(-c2cc(O)n(CCC#N)n2)cc1 | -0.0369%
10 | Nc1nonc1C(=O)NCCc1ccccc1 | 1.03%
11 | CCCOc1ccccc1/C=c1/sc2nc(=O)c(Cc3ccccc3)nn2c1=O | 1.91%
12 | CCOC(=O)c1[nH]c2ccc(F)cc2c1N | 1.72%
13 | c1ccc(-c2nnc(CN3CCCCC3)o2)cc1 | 3.74%
14 | CN1C(=O)C2Cc3c([nH]c4ccccc34)C(c3ccc(Cl)cc3)N2C1=S (centres unmarked) | 1.66%
15 | Cc1nn(-c2ccccc2)c(Cl)c1CO | -1.29%
16 | CCCOc1ccc(C2C(C(=O)c3ccc4c(c3)CC(C)O4)=C(O)C(=O)N2Cc2ccco2)cc1 (centres unmarked) | 18.4%
17 | O=S(=O)(NCc1cn2ccsc2n1)c1ccc2c(c1)OCCO2 | 4.14%
18 | NC(=O)C1CCN(C(=O)CCCSc2nc(-c3ccco3)cc(C(F)(F)F)n2)CC1 | 10.8%
19 | Cc1ccc(C(C)NC(=O)C2C3CCC(C3)C2C(=O)O)cc1C (centres unmarked) | 3.61%
20 | COc1ccc(S(=O)(=O)Nc2ccc(Cl)cc2C(=O)c2ccccc2)cc1 | 2.92%
21 | COc1ccc(CCNC(=O)c2oc3ccc4c(c3c2C)C(O)CC2(CCCC2)O4)cc1OC (centres unmarked) | 7.76%
22 | COc1ccc(C(=O)Cn2cnc3c(C#N)c4n(c3c2=O)CCCCC4)cc1 | 15.9%
23 | CCn1cc(C(=O)N(C)C2CCCCC2)c2cc(OC)c(OC)cc2c1=O | -4.86%
24 | CC(C)C[C@H](NC(=O)c1ccc2ccccc2c1)C(=O)NCC#N | -5.2%
25 | COc1ccc(NC2=C(Cl)C(=O)N(c3cccc(C)c3)C2=O)cc1 | -2.83%
26 | CC(=O)N1CCc2c(sc3nc(SCc4cc(C)ccc4C)n(CC4CCCO4)c(=O)c23)C1 (centres unmarked) | 2.33%

Row | Compound | % Inhibition @ 10 uM
27 | CCC(C)NC(=O)c1nn2c(c1Cl)NC(c1ccc(OC)cc1)CC2C(F)(F)F (centres unmarked) | 0.751%
28 | COc1ccc(OC)c(S(=O)(=O)N2CCOCC2)c1 | -4.98%
29 | Cc1ccccc1C(=O)Nc1sc(C)c(C)c1C#N | -2.77%
30 | N#CC1=C(N)Oc2[nH]nc(-c3ccc(Cl)cc3)c2C1c1cccs1 (centres unmarked) | -5.01%
31 | O=C(Nc1cccc(C(F)(F)F)c1)c1cccnc1NCCO | -4.91%
32 | COc1ccccc1CN1CCC(CN2CNc3c(c(=O)n(C)c(=O)n3C)C2)CC1 | 2.34%
33 | COc1ccccc1C(=O)Nc1sc2c(c1C(=O)NCc1ccco1)CCC2 | 4.39%
34 | CCOC(C(=O)O)(c1ccccc1)c1ccccc1 | 5.3%
35 | Cc1ccc(Cn2c(SCC(N)=O)nc3c(oc4ccccc43)c2=O)cc1 | 1.45%
36 | CN(Cc1ccc(Br)cc1)CC(O)c1ccccc1 (centres unmarked) | -3.42%
37 | CCOC(=O)c1c(C)[nH]c(C)c1S(=O)(=O)NCC(=O)N1CCN(C2CCCC2)CC1 | -3.05%
38 | Cc1occc1C(=O)Nc1cccc(NC(=O)c2ccoc2C)c1 | -3.41%
39 | O=C(c1ccc2c(c1)OCO2)N1CCN(c2cccc(C(F)(F)F)c2)CC1 | -5.28%
40 | CC1=C(C#N)C(=O)N(C)C(=O)/C1=C\NC12CN3CN(CN(C3)C1)C2 | -6.35%
41 | Cc1cc(C(=O)NC(C)CCc2ccccc2)c2c(C)nn(-c3ccccc3)c2n1 (centres unmarked) | 2.12%
42 | Cc1ccc(NC2=NCC(C)S2)c(C)c1 (centres unmarked) | 1.84%
43 | CCN(CC)CCC(=O)C=C(C)C | -2.97%
44 | Cc1cc(C(=O)NCc2ccc(F)cc2)no1 | -5.09%
45 | Cc1ccc(C(C)C)c(Oc2ccc(-c3nc(N)nc(N)n3)cc2)c1 | 5.69%
46 | O=C(Nc1ccn(Cc2ccc(F)cc2)n1)c1ccncc1 | 2.32%
47 | c1ccc(-c2ncnn2-c2ccccc2)cc1 | -4.75%
48 | Nc1c(C(=O)O)cc(O)c2c1C(=O)c1ccccc1C2=O | 0.98%
49 | COc1cccc(/C=c2\sc3ncnn3c2=O)c1OC | 0.0069%
50 | FC(F)(F)c1cc(-c2cccs2)n2ncc(-c3ccc(Cl)cc3)c2n1 | 0.0538%
51 | Cc1cc(O)nc2c1cnn2C(C)c1ccccc1 (centres unmarked) | 2.89%
52 | CC(C)(C)c1ccc(-c2nc(NC(=O)CSc3nnnn3-c3ccccc3)ns2)cc1 | -1.11%

Row | Compound | % Inhibition @ 10 uM
53 | Cc1cccc(CCNc2nnc3c4ccccc4n(C)c3n2)c1 | 1.1%
54 | CC1(C)OC(=O)C(=Cc2ccc(N3CCCCC3)o2)C(=O)O1 | 0.035%
55 | Cc1cccc(CCNc2nc3ccccc3n3nnnc23)c1 | -5.29%
56 | Cc1ccc(CNC(=O)C2CCN(c3nnc(C)c4c(C)n(-c5ccc(Cl)cc5)nc34)CC2)o1 | 3.58%
57 | Cc1cc(C)n(-c2c(-c3ccccc3)c(=O)n(C)c3ccccc23)n1 | 2.42%
58 | COCCCN1C2=C(C(=O)CC(C)(C)C2)C(c2ccccc2)C2=C1CC(C)(C)CC2=O | -1.95%
59 | CCC(C)NC(=O)NC1C(NC(=O)NC(C)CC)N(C)C(=O)N1C (centres unmarked) | 3.15%
60 | Cc1cc(C)c(S(=O)(=O)N2CCN(c3nc4ccccc4nc3-n3nc(C)cc3C)CC2)c(C)c1 | -0.602%
61 | COc1cc(NS(=O)(=O)c2ccc(NS(=O)(=O)c3ccccc3)cc2)nc(OC)n1 | 5.12%
62 | CCN(CC)CCNC(=O)c1cc([N+](=O)[O-])c(N(C)C)cc1OC | -1.29%
63 | Cc1cc(NC(=O)CNS(=O)(=O)c2ccc3nc(C)sc3c2)[nH]n1 | -4.24%
64 | CCN(CC)CCNS(=O)(=O)c1ccc(-c2ccc(O)nn2)s1 | 2.96%
65 | O=C(NCCO)c1cc2ccccc2oc1=O | -1.59%
66 | C=CCn1c(SCC(C)C)nc2c1c(=O)n(C)c(=O)n2C | 2.36%
67 | CSc1nc(-c2ccc(Cl)cc2)nn1S(=O)(=O)c1ccccc1 | -8.9%
68 | Clc1ccc2nc(NCCN3CCOCC3)c3nncn3c2c1 | 4.33%
69 | O=C(CSCc1ccccc1Cl)NCCSc1ccccn1 | -5%
70 | COc1ccc(N2C(=O)CC(NCCc3ccc(OC)c(OC)c3)C2=O)cc1 (centres unmarked) | -1.28%
71 | COc1cccc(OCCNC(=O)c2cc(C(F)(F)F)cc(C(F)(F)F)c2)c1 | 5.79%
72 | CCOc1ccc(NC(=O)CC2(c3ccc(OC)cc3)C(=O)c3ccccc3C2=O)cc1 | -3.58%
73 | Cc1cccc(-n2c(S)nnc2Cn2nc(C)c(Cl)c2C)c1 | 7.04%
74 | CCN(Cc1ccc(OC)cc1)S(=O)(=O)c1nnc(NC(=O)/C=C/c2ccccc2)s1 | -5.9%
75 | O=C(Nc1noc2ccccc12)c1ccc(Cl)c(Cl)c1 | 3.77%
76 | Cc1cccn2cc(-c3ccc(NC(=O)CC(C)C)cc3)nc12 | 4.81%
77 | COc1ccc2c(c1)C(C)=CC(C)(C)N2S(=O)(=O)c1ccc(NC(C)=O)cc1 | 14.9%
78 | CCOc1ccccc1/C=C1\N=C(c2ccc(OC)cc2Cl)OC1=O | 3.1%

Row | Compound | % Inhibition @ 10 uM
79 | c1ccc(-c2nc3sc4c(ncn5cnnc45)c3c3c2CCC3)cc1 | 0.883%
80 | COc1ccc(C2=NOC(C(=O)N3CCc4ccccc4C3)C2)cc1 (centres unmarked) | 6.22%
81 | c1ccc(-n2nnnc2COc2cccc3ccccc23)cc1 | -4.64%
82 | CCC1C(=O)NCCN1C(=O)c1ccc(Br)o1 (centres unmarked) | 2.41%
83 | O=S(=O)(Cc1ccccc1)N1CCOCC1 | -2.35%
84 | CCc1nc2sc3c(N4CCCC4)ncnc3c2c2c1CCCC2 | 3.27%
85 | O=C(NCCc1ccccc1)c1cccc(F)c1 | -2.03%
86 | CN1C(=O)N(C)C(=O)C(Cc2ccccn2)(Cc2ccccn2)C1=O | -6.25%
87 | Cc1nc2c(C(=O)NCCC3=CCCCC3)cnn2c(C)c1Cc1ccccc1Cl | -4.29%
88 | CC(=O)Nc1ccc(C(=O)N(C)C(C(=O)Nc2ccccc2)c2ccccn2)cc1 (centres unmarked) | -11.2%
89 | COc1ccccc1-c1cc(C(=O)Nc2c(C)nn(Cc3ccccc3C)c2C)no1 | 12.8%
90 | O=C(CCCOc1ccc(Cl)cc1Cl)N1CCN(c2ccc(F)cc2)CC1 | 0.135%
91 | COc1ccc(/C=N/c2nnc(-c3ccccc3)c(-c3ccccc3)n2)c(C(=O)O)c1OC | 2.18%
92 | CC1=NC2=C(C(=O)CCC2)C(c2cccc(Cl)c2)/C1=C(\O)OC(C)C (centres unmarked) | -1.15%
93 | CCN1/C(=C2/SC(=S)N(C3CCCCC3)C2=O)C=Cc2cc(C)ccc21 | -0.0369%
94 | O=C(Cn1nc(C(F)(F)F)cc1C1CC1)Nc1cccc(Cl)c1 | -3.71%
95 | CCCCc1[nH]nc2c1C(c1cc(OC)c(OC)cc1OC)C(C#N)=C(N)O2 (centres unmarked) | 0.722%
96 | O=C(CCCn1c2ccccc2c2cnnc(O)c21)NCCCN1CCCC1=O | -0.281%
97 | COc1ccccc1C(=O)N1CCN(C)CC1 | -0.233%
98 | O=C1CCCC2=C1C(c1ccc3c(c1)OCO3)C1=C(CCCC1=O)O2 | 1.5%
99 | C/N=C1\SC(CC(=O)Nc2cccc(C(=O)O)c2)C(=O)N1C (centres unmarked) | 5.37%
100 | CCOc1ccccc1C1C(C#N)=C(N)Oc2ccc3ccccc3c21 (centres unmarked) | 8.08%
101 | CCCC[C@H](NC(=O)C(Cc1c(F)cccc1F)NC(=O)c1ccc(-c2ccccc2Cl)cc1)C(=O)CC(=O)N1CCCC1 (some centres unmarked) | -3.48%

From PMC6919601, “Identification of Plasmodium dipeptidyl aminopeptidase allosteric inhibitors by high throughput screening” (PLoS ONE, 2019)
